{"source": "paper PMC6212790", "note": "The list shows a part of the results. At the low end of the ranking, values are background and their order means little."}
{"biological_target": "T1, GST-Rok-C97-191 (UniProt O34857)", "T1 sequence": "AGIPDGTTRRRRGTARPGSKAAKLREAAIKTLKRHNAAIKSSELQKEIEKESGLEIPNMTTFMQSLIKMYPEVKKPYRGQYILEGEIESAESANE", "assay": "protein binding microarray;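 also: rank score from −0.5 (least bound) to 0.5 (best bound)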", "settings": "Rok is a gene silencer of Bacillus subtilis; high values mean tight binding; most listed sequences are background and not binding sites; double strand, one strand shown", "units": {"binding signal": "E-score"}}
{"sequence": "ACGGTTGC", "binding signal": -0.0207}
{"sequence": "AGCCGAAC", "binding signal": -0.058}
{"sequence": "ACGTCGAG", "binding signal": 0.0934}
{"sequence": "AGAGCTCT", "binding signal": -0.214}
{"sequence": "AGTTCGGG", "binding signal": 0.0887}
{"sequence": "GCGAATCC", "binding signal": -0.0262}
{"sequence": "CGTGGCGC", "binding signal": -0.314}
{"sequence": "CCGTCAGC", "binding signal": -0.377}
{"sequence": "AATAGCCC", "binding signal": -0.0136}
{"sequence": "ATATCAAC", "binding signal": 0.215}
{"sequence": "ACTAGACG", "binding signal": 0.0634}
{"sequence": "AGAAAGCC", "binding signal": 0.0693}
{"sequence": "CTAACCAA", "binding signal": 0.0439}
{"sequence": "ATGAGGAA", "binding signal": -0.178}
{"sequence": "AGTCCGAT", "binding signal": -0.123}
{"sequence": "ACATTGCG", "binding signal": 0.0502}
{"sequence": "CAATCGGG", "binding signal": -0.105}
{"sequence": "CACACTCA", "binding signal": -0.155}
{"sequence": "CACCCTGG", "binding signal": -0.233}
{"sequence": "AGAGTGCC", "binding signal": -0.13}
{"sequence": "AGTAGGGC", "binding signal": 0.1}
{"sequence": "GCACTGGA", "binding signal": -0.289}
{"sequence": "ACTGGGGC", "binding signal": -0.241}
{"sequence": "ATAGGACA", "binding signal": 0.0985}
{"sequence": "AGGCGCAC", "binding signal": -0.137}
{"sequence": "CTCCGAGC", "binding signal": -0.00815}
{"sequence": "ATCTATTC", "binding signal": 0.088}
{"sequence": "CATCAATA", "binding signal": -0.0332}
{"sequence": "ACCACGGC", "binding signal": -0.0922}
{"sequence": "GTCTAGGA", "binding signal": -0.157}
{"sequence": "AGTCTGGC", "binding signal": -0.0228}
{"sequence": "ACACATGA", "binding signal": 0.133}
{"sequence": "CGCAGTCC", "binding signal": -0.234}
{"sequence": "GCGACGAC", "binding signal": -0.284}
{"sequence": "GCATCGCC", "binding signal": -0.276}
{"sequence": "AGATTAGC", "binding signal": 0.212}
{"sequence": "AGATAAAA", "binding signal": 0.23}
{"sequence": "AGTCCGTA", "binding signal": 0.0589}
{"sequence": "GTGTCGCA", "binding signal": -0.177}
{"sequence": "GACCCCAC", "binding signal": -0.316}
{"sequence": "CTCTTGCC", "binding signal": -0.152}
{"sequence": "ATACCGCC", "binding signal": 0.0537}
{"sequence": "ATCTATGG", "binding signal": 0.243}
{"sequence": "CTAATGTA", "binding signal": 0.185}
{"sequence": "ACACGCAC", "binding signal": -0.0614}
{"sequence": "CAACGAGA", "binding signal": 0.0419}
{"sequence": "AGTGGTAC", "binding signal": 0.202}
{"sequence": "GGCGCACA", "binding signal": -0.176}
{"sequence": "CCGCCCGA", "binding signal": -0.2}
{"sequence": "GTAGTCAC", "binding signal": -0.0737}
{"sequence": "CCCCATGC", "binding signal": -0.336}
{"sequence": "GACTTCGA", "binding signal": -0.015}
{"sequence": "ACGTCTGC", "binding signal": -0.0679}
{"sequence": "AAAGTGAT", "binding signal": 0.00366}
{"sequence": "CCGCGCAC", "binding signal": -0.349}
{"sequence": "CGGGTACG", "binding signal": -0.0523}
{"sequence": "AGATCCAT", "binding signal": 0.0146}
{"sequence": "CCCACTTA", "binding signal": 0.0808}
{"sequence": "AGGGTAGA", "binding signal": 0.0919}
{"sequence": "CAGCCTTC", "binding signal": -0.302}
{"sequence": "AGACACTG", "binding signal": -0.0905}
{"sequence": "GTATGCAC", "binding signal": -0.112}
{"sequence": "AGTTCGAG", "binding signal": 0.141}
{"sequence": "AGCCCTCC", "binding signal": -0.294}
{"sequence": "GGCAAAGA", "binding signal": -0.188}
{"sequence": "AGGTGTAT", "binding signal": 0.188}
{"sequence": "ATAGATGA", "binding signal": 0.0596}
{"sequence": "GAGCTCCC", "binding signal": -0.153}
{"sequence": "GGTTAAAA", "binding signal": 0.121}
{"sequence": "ATAGCCAC", "binding signal": 0.0249}
{"sequence": "CCTTAAAC", "binding signal": -0.218}
{"sequence": "CTGCGCGC", "binding signal": -0.118}
{"sequence": "GCGGATAA", "binding signal": -0.00117}
{"sequence": "CGAAGGTA", "binding signal": 0.0456}
{"sequence": "CCCGGACG", "binding signal": -0.305}
{"sequence": "CAGTCGTC", "binding signal": -0.184}
{"sequence": "GAGTCTGC", "binding signal": -0.311}
{"sequence": "TTCGAAAA", "binding signal": -0.0651}
{"sequence": "GTGGTATA", "binding signal": 0.271}
{"sequence": "TAATGCTA", "binding signal": 0.221}
{"sequence": "CTGTCTGC", "binding signal": -0.129}
{"sequence": "AACTTGGG", "binding signal": -0.0135}
{"sequence": "AGCTAGGA", "binding signal": -0.00935}
{"sequence": "CTGAGATA", "binding signal": 0.0982}
{"sequence": "CGTATTCC", "binding signal": 0.127}
{"sequence": "AGAATTCT", "binding signal": 0.283}
{"sequence": "GTACGAGA", "binding signal": 0.0751}
{"sequence": "CCCATAGC", "binding signal": -0.0764}
{"sequence": "CATAGTGC", "binding signal": -0.076}
{"sequence": "GAGGACGA", "binding signal": -0.327}
{"sequence": "ATATCAGC", "binding signal": -0.037}
{"sequence": "CGCTAAGA", "binding signal": 0.00882}
{"sequence": "TGTGCGAA", "binding signal": -0.197}
{"sequence": "GGATCCCA", "binding signal": -0.17}
{"sequence": "AGCCCGGA", "binding signal": -0.155}
{"sequence": "AAGGATTA", "binding signal": -0.00535}
{"sequence": "ATATCATC", "binding signal": 0.267}
{"sequence": "AAAGTAAC", "binding signal": 0.0559}
{"sequence": "ATATCATG", "binding signal": 0.18}
{"sequence": "CACGTGCC", "binding signal": -0.106}
{"sequence": "AAATACAT", "binding signal": 0.359}
{"sequence": "CCGAGAGC", "binding signal": -0.243}
{"sequence": "TACACCAA", "binding signal": 0.0785}
{"sequence": "ACGCTGAG", "binding signal": -0.137}
{"sequence": "AGGCATAC", "binding signal": -0.0482}
{"sequence": "CTGCCGTA", "binding signal": -0.00883}
{"sequence": "AACAGGCA", "binding signal": -0.131}
{"sequence": "GGGGGACA", "binding signal": -0.0919}
{"sequence": "CTACCAGC", "binding signal": 0.169}
{"sequence": "GGTCTCCA", "binding signal": -0.155}
{"sequence": "GCATTTCC", "binding signal": -0.322}
{"sequence": "CGCACTGA", "binding signal": -0.0641}
{"sequence": "AGAAATTA", "binding signal": 0.344}
{"sequence": "CGGTATCC", "binding signal": -0.0945}
{"sequence": "AGGCGTAT", "binding signal": 0.112}
{"sequence": "GGAGGATA", "binding signal": -0.0638}
{"sequence": "ATACAGCA", "binding signal": -0.0641}
{"sequence": "GAGGCCAA", "binding signal": -0.21}
{"sequence": "GATTGTCC", "binding signal": -0.092}
{"sequence": "CATACAAC", "binding signal": 0.122}
{"sequence": "AGAACGCC", "binding signal": 0.0453}
{"sequence": "ACGCATTA", "binding signal": 0.134}
{"sequence": "CCACTTAG", "binding signal": -0.0775}
{"sequence": "GGTCGACC", "binding signal": -0.163}
{"sequence": "AATAGCGA", "binding signal": 0.0723}
{"sequence": "GAGCGCGC", "binding signal": -0.115}
{"sequence": "CTGGTAAC", "binding signal": 0.0974}
{"sequence": "CCATTATA", "binding signal": 0.161}
{"sequence": "AGTGTCTA", "binding signal": 0.121}
{"sequence": "CCGTCAAA", "binding signal": -0.226}
{"sequence": "ACAGTTAC", "binding signal": 0.225}
{"sequence": "CCCGTCAG", "binding signal": -0.19}
{"sequence": "CGATGCAG", "binding signal": 0.0322}
{"sequence": "ATGTTCGC", "binding signal": -0.133}
{"sequence": "GGCGGCCC", "binding signal": -0.274}
{"sequence": "ACGTCGCT", "binding signal": -0.0803}
{"sequence": "AACCCTAA", "binding signal": -0.116}
{"sequence": "CTCTCATA", "binding signal": -0.153}
{"sequence": "CAGCCGAG", "binding signal": -0.172}
{"sequence": "CCGGCCGG", "binding signal": -0.337}
{"sequence": "ATTCATGC", "binding signal": 0.131}
{"sequence": "CTACGGGA", "binding signal": -0.116}
{"sequence": "ATATAAAT", "binding signal": 0.419}
{"sequence": "CCGCGTGC", "binding signal": -0.155}
{"sequence": "CGCGCCTC", "binding signal": -0.466}
{"sequence": "TACACCTA", "binding signal": 0.212}
{"sequence": "CCCAGTCG", "binding signal": -0.237}
{"sequence": "CGTACTGA", "binding signal": 0.0539}
{"sequence": "ATTAAATA", "binding signal": 0.211}
{"sequence": "AGATAGGC", "binding signal": 0.141}
{"sequence": "ACGCAGGA", "binding signal": -0.153}
{"sequence": "CCTGACAC", "binding signal": -0.29}
{"sequence": "CATGAAAG", "binding signal": -0.0316}
{"sequence": "AATTTCCC", "binding signal": 0.153}
{"sequence": "ATTCGGCG", "binding signal": -0.168}
{"sequence": "GACGGCGC", "binding signal": -0.357}
{"sequence": "CGATAGAG", "binding signal": -0.176}
{"sequence": "CGTATACA", "binding signal": 0.145}
{"sequence": "TACAATCA", "binding signal": 0.247}
{"sequence": "CGAACAAG", "binding signal": -0.0407}
{"sequence": "AATTTCGG", "binding signal": 0.147}
{"sequence": "CGAAGAGC", "binding signal": -0.0298}
{"sequence": "AGACCTAT", "binding signal": 0.0709}
{"sequence": "ACGACCTA", "binding signal": 0.00188}
{"sequence": "CGGCGTAC", "binding signal": -0.11}
{"sequence": "TACGCTAA", "binding signal": 0.0519}
{"sequence": "GGCTTATA", "binding signal": 0.16}
{"sequence": "CCTACGAA", "binding signal": 0.125}
{"sequence": "ATAGTACA", "binding signal": 0.347}
{"sequence": "GCAAATGA", "binding signal": 0.0361}
{"sequence": "CGTGACCC", "binding signal": -0.195}
{"sequence": "AAGCTGCA", "binding signal": -0.104}
